Biological target: CtermHisTag-mEGFR Triple Mutant (R797S, L858R, T790M) (Homo sapiens, UniProt P00533, C797S/L858R/T790M)
Test: TR-FRET probe displacement, EGFR triple mutant
Settings: 1.25 nM EGFR, 100 nM probe, 30 mins room temperature

`C#Cc1cc(=O)n(C)c2nc(Nc3ccc(N4CCN(C)CC4)c(OCCC(C)C)c3)ncc12` [Example 216, 5-Ethynyl-2-((3-(isopentyloxy)-4-(4-methylpiperazin-1-yl)phenyl)amino)-8-methylpyrido[2,3-d]pyrimidin-7(8H)-one] and `C#Cc1cc(=O)n(C)c2nc(Nc3ccc(N4CCN(C)CC4)cc3)ncc12` [Example 45, 5-Ethynyl-8-methyl-2-{[4-(4-methylpiperazin-1-yl)phenyl]amino}pyrido[2,3-d]pyrimidin-7-one] fall in the same range of IC50: 20 to 100 nM for the first, 20 to 100 nM for the second.

First: C#Cc1cc(=O)n(Cc2ccn(C)n2)c2nc(Nc3ccc(N4CCN(C)CC4)cc3)ncc12 [Example 118, 5-ethynyl-2-{[4-(4-methylpiperazin-1-yl)phenyl]amino}-8-[(1-methylpyrazol-3-yl)methyl]pyrido[2,3-d]pyrimidin-7-one]
Second: C#Cc1c(C)c(=O)n(Cc2cccnc2)c2nc(Nc3ccc(N4CCN(C)CC4)cc3)ncc12 [Example 116, 5-ethynyl-6-methyl-2-{[4-(4-methylpiperazin-1-yl)phenyl]amino}-8-(pyridin-3-ylmethyl)pyrido[2,3-d]pyrimidin-7-one]
The IC50 of the first is lower: < 20 nM for the first, 100 to 1000 nM for the second.

First: C#Cc1c(-c2cccs2)c(=O)n(C)c2nc(Nc3ccc(N4CCN(C)CC4)cc3)ncc12 [Example 150, 5-ethynyl-8-methyl-2-{[4-(4-methylpiperazin-1-yl)phenyl]amino}-6-(thiophen-2-yl)pyrido[2,3-d]pyrimidin-7-one]
Second: C#Cc1c(C2CC2)c(=O)n(C)c2nc(Nc3ccc(N4CCN(C)CC4)cc3)ncc12 [Example 148, 6-cyclopropyl-5-ethynyl-8-methyl-2-{[4-(4-methylpiperazin-1-yl)phenyl]amino}pyrido[2,3-d]pyrimidin-7-one]
The IC50 of the first is lower: < 20 nM for the first, 100 to 1000 nM for the second. The first is the more potent here.

`C#Cc1cc(=O)n(-c2ccccc2)c2nc(Nc3cnn(C4CCN(C)CC4)c3)ncc12` [Example 19, 5-Ethynyl-2-{[1-(1-methylpiperidin-4-yl)pyrazol-4-yl]amino}-8-phenylpyrido[2,3-d]pyrimidin-7-one] and `C#Cc1cc(=O)n(-c2ccc(NC(=O)C3CC3)cc2)c2nc(Nc3ccccc3OC)ncc12` [Example 66, N-(4-(5-Ethynyl-2-((2-methoxyphenyl)amino)-7-oxopyrido[2,3-d]pyrimidin-8(7H)-yl)phenyl)cyclopropanecarboxamide] fall in the same range of IC50: 20 to 100 nM for the first, 20 to 100 nM for the second.

First: C=Cc1c(-c2c(Cl)cccc2Cl)c(=O)n(C)c2nc(Nc3cccc(CO)c3)ncc12 [Example 164, 6-(2,6-dichlorophenyl)-5-ethenyl-2-{[3-(hydroxymethyl)phenyl]amino}-8-methylpyrido[2,3-d]pyrimidin-7-one]
Second: C#Cc1c(-c2ccccc2Cl)c(=O)n(C)c2nc(Nc3ccccc3)ncc12 [Example 124, 6-(2-chlorophenyl)-5-ethynyl-8-methyl-2-(phenylamino)pyrido[2,3-d]pyrimidin-7-one]
The IC50 of the first is higher: 100 to 1000 nM for the first, 20 to 100 nM for the second.

First: C#Cc1c(C)c(=O)n(Cc2cnc[nH]2)c2nc(Nc3ccc(N4CCN(C)CC4)cc3)ncc12 [Example 111, 5-ethynyl-8-(3H-imidazol-4-ylmethyl)-6-methyl-2-{[4-(4-methylpiperazin-1-yl)phenyl]amino}pyrido[2,3-d]pyrimidin-7-one]
Second: C#Cc1cc(=O)n([C@H]2CC[C@@H](NC(=O)CCC(=O)NC)CC2)c2nc(Nc3ccc(N4CCN(C)CC4)cc3)ncc12 [Example 98, N-Methyl-N′-[(1s,4s)-4-(5-ethynyl-2-{[4-(4-methylpiperazin-1-yl)phenyl]amino}-7-oxopyrido[2,3-d]pyrimidin-8-yl)cyclohexyl]succinamide]
The IC50 of the first is higher: 100 to 1000 nM for the first, < 20 nM for the second.

First: C=Cc1cc(=O)n(-c2cccc(OC)c2)c2nc(Nc3ccccc3OC)ncc12 [Example 156, 8-(3-Methoxyphenyl)-2-((2-methoxyphenyl)amino)-5-vinylpyrido[2,3-d]pyrimidin-7(8H)-one]
Second: C#Cc1cc(=O)n(-c2ccc(NC(C)=O)cc2)c2nc(Nc3ccccc3OC)ncc12 [Example 62, N-(4-(5-Ethynyl-2-((2-methoxyphenyl)amino)-7-oxopyrido[2,3-d]pyrimidin-8(7H)-yl)phenyl)acetamide]
The IC50 of the first is higher: 1000 to 50000 nM for the first, 20 to 100 nM for the second. The second is the more potent here.

First: C#Cc1cc(=O)n(C(C)C)c2nc(Nc3ccccc3OC)ncc12 [Example 83, 5-Ethynyl-8-isopropyl-2-[(2-methoxyphenyl)amino]pyrido[2,3-d]pyrimidin-7-one]
Second: C#Cc1c(C#N)c(=O)n(-c2ccccc2)c2nc(Nc3ccccc3OC)ncc12 [Example 145, 5-ethynyl-2-[(2-methoxyphenyl)amino]-7-oxo-8-phenylpyrido[2,3-d]pyrimidine-6-carbonitrile]
The IC50 of the first is higher: 100 to 1000 nM for the first, < 20 nM for the second.

First: C#Cc1c(Cc2ccccc2)c(=O)n(C)c2nc(Nc3ccc(N(C)CCN(C)C)cc3OC)ncc12 [Example 140, 6-benzyl-2-[(4-[[2-(dimethylamino)ethyl](methyl)amino]-2-methoxyphenyl)amino]-5-ethynyl-8-methylpyrido[2,3-d]pyrimidin-7-one]
Second: C#Cc1c(-c2ccccc2)c(=O)n(C)c2nc(Nc3ccc(N(C)CCN(C)C)cc3OC)ncc12 [Example 121, 2-[(4-[[2-(dimethylamino)ethyl](methyl)amino]-2-methoxyphenyl)amino]-5-ethynyl-8-methyl-6-phenylpyrido[2,3-d]pyrimidin-7-one]
The IC50 of the first is higher: 1000 to 50000 nM for the first, 100 to 1000 nM for the second.

`C#Cc1cc(=O)n2c3nc(ncc13)Nc1ccc(N3CCN(C)CC3)c(c1)NC(=O)CCC2` [Example 222, 1^5-ethynyl-3^4-(4-methylpiperazin-1-yl)-1^7,1^8-dihydro-2,4-diaza-1(2,8)-pyrido[2,3-d]pyrimidina-3(1,3)-benzenacyclooctaphane-1^7,5-dione] and `C#Cc1cc(=O)n2c3nc(ncc13)Nc1ccc(N3CCN(C)CC3)c(c1)OCCCCC2` [Example 200, 1^5-Ethynyl-34-(4-methylpiperazin-1-yl)-1^7,1^8-dihydro-4-oxa-2-aza-1(2,8)-pyrido[2,3-d]pyrimidina-3(1,3)-benzenacyclononaphan-17-one] cannot be ordered by IC50: < 20 nM for the first, < 20 nM for the second.

First: C#Cc1c(-c2ccccc2OC)c(=O)n(C)c2nc(Nc3ccc(N(C)CCN(C)C)cc3)ncc12 [Example 138, 2-[(4-{[2-(dimethylamino)ethyl](methyl)amino}phenyl)amino]-5-ethynyl-6-(2-methoxyphenyl)-8-methylpyrido [2,3-d]pyrimidin-7-one]
Second: C#Cc1cc(=O)n(C)c2nc(Nc3ccc(OCCN(C)C)cc3)ncc12 [Example 46, 2-({4-[2-(Dimethylamino)ethoxy]phenyl}amino)-5-ethynyl-8-methylpyrido[2,3-d]pyrimidin-7-one]
The IC50 of the first is higher: 1000 to 50000 nM for the first, 20 to 100 nM for the second.

Compared with `C#Cc1cc(=O)n(C2CCCC2)c2nc(Nc3cccc4c3CN(C)C4)ncc12` [Example 184, 8-Cyclopentyl-5-ethynyl-2-[(2-methvl-1,3-dihydroisoindol-4-yl)amino]pyrido[2,3-d]pyrimidin-7-one], `C#Cc1cc(=O)n([C@H]2CC[C@@H](NC(=O)CCC(=O)OC)CC2)c2nc(Nc3ccc(N4CCN(C)CC4)cc3)ncc12` [Example 92, Methyl 4-(((1s,4s)-4-(5-ethynyl-2-((4-(4-methylpiperazin-1-yl)phenyl)amino)-7-oxopyrido[2,3-d]pyrimidin-8(7H)-yl)cyclohexyl)amino)-4-oxobutanoate] is lower in IC50: 1000 to 50000 nM for the first, < 20 nM for the second.

Source: patent US20260137703A1, “2-AMINO-PYRIDO[2,3-D]PYRIMIDIN-7(8H)-ONE AND 7-AMINO-1-PYRIMIDO[4,5-D]PYRIMIDIN-2(1 H)-ONE DERIVATIVES AS EGFR INHIBITORS FOR THE TREATMENT OF CANCER” (Cancer Research Technology Limited, priority 2022, published 2026)
